# Test results reported in US20230002486A1 (SPARX THERAPEUTICS, published 2023).
# B1: Dblnk16, linker-enhanced single-chain bispecific antibody (bispecific antibody)
# chain: DIQMTQSPSSLSASVGDRVTITCKSSQSLLNSGNQKSYLTWYQQKPGKAPKLLIYWASTLESGVPSRFSGSGSGTDYTLTISSLQPEDFATYYCQNAYFFPFTFGQGTKVEIKSSSGGEVQLVESGGGLVQPGGSLRLSCAASGFTFSRYWMSWVRQAPGKGLEWVANIKQDGSEKYYVDSVKGRFTISRDNAKNSLYLQMNSLRAEDTAVYYCAREGGWFGELAFDYWGQGTLVTVSSSGGGSSGSGGGRSGSEIVLTQSPGTLSLSPGERATLSCRASQRVSSSYLAWYQQKPGQAPRLLIYDASSRATGIPDRFSGSGSGTDFTLTISRLEPEDFAVYYCQQYGSLPWTFGQGTKVEIKSGGGGEVQLVESGGGLVQPGGSLRLSCAVSGYTFSMNWVRQAPGKGLEWVAWINMYTGEPTYADDFKGRFTISRDDSKNTLYLQMNSLRAEDTAVYYCARLYNGNSLDYWGQGTLVTVSSGGGGS[human IgG1 Fc with C220S (EU numbers) not printed]
# notes: Single polypeptide with Fc; also called DbInk16
# B2: Dblnk14, linker-enhanced single-chain bispecific antibody (bispecific antibody)
# chain: DIQMTQSPSSLSASVGDRVTITCKSSQSLLNSGNQKSYLTWYQQKPGKAPKLLIYWASTLESGVPSRFSGSGSGTDYTLTISSLQPEDFATYYCQNAYFFPFTFGQGTKVEIKGSSGEVQLVESGGGLVQPGGSLRLSCAASGFTFSRYWMSWVRQAPGKGLEWVANIKQDGSEKYYVDSVKGRFTISRDNAKNSLYLQMNSLRAEDTAVYYCAREGGWFGELAFDYWGQGTLVTVSSSSGSSSGSRSGSSSGGSEIVLTQSPGTLSLSPGERATLSCRASQRVSSSYLAWYQQKPGQAPRLLIYDASSRATGIPDRFSGSGSGTDFTLTISRLEPEDFAVYYCQQYGSLPWTFGQGTKVEIKSGGGGGEVQLVESGGGLVQPGGSLRLSCAVSGYTFSMNWVRQAPGKGLEWVAWINMYTGEPTYADDFKGRFTISRDDSKNTLYLQMNSLRAEDTAVYYCARLYNGNSLDYWGQGTLVTVSSGGGGS[human IgG1 Fc with C220S (EU numbers) not printed]
# notes: Single polypeptide with Fc; also called DbInk14
# B3: Dblnk11, linker-enhanced single-chain bispecific antibody (bispecific antibody)
# chain: DIQMTQSPSSLSASVGDRVTITCKSSQSLLNSGNQKSYLTWYQQKPGKAPKLLIYWASTLESGVPSRFSGSGSGTDYTLTISSLQPEDFATYYCQNAYFFPFTFGQGTKVEIKGSGSEVQLVESGGGLVQPGGSLRLSCAASGFTFSRYWMSWVRQAPGKGLEWVANIKQDGSEKYYVDSVKGRFTISRDNAKNSLYLQMNSLRAEDTAVYYCAREGGWFGELAFDYWGQGTLVTVSSSSGGSSGSSGSGSSGGEIVLTQSPGTLSLSPGERATLSCRASQRVSSSYLAWYQQKPGQAPRLLIYDASSRATGIPDRFSGSGSGTDFTLTISRLEPEDFAVYYCQQYGSLPWTFGQGTKVEIKSGGGSEVQLVESGGGLVQPGGSLRLSCAVSGYTFSMNWVRQAPGKGLEWVAWINMYTGEPTYADDFKGRFTISRDDSKNTLYLQMNSLRAEDTAVYYCARLYNGNSLDYWGQGTLVTVSSGGGGS[human IgG1 Fc with C220S (EU numbers) not printed]
# notes: Single polypeptide with Fc; also called DbInk11
# B4: Dblnk7, linker-enhanced single-chain bispecific antibody (bispecific antibody)
# chain: DIQMTQSPSSLSASVGDRVTITCKSSQSLLNSGNQKSYLTWYQQKPGKAPKLLIYWASTLESGVPSRFSGSGSGTDYTLTISSLQPEDFATYYCQNAYFFPFTFGQGTKVEIKGGGSEVQLVESGGGLVQPGGSLRLSCAASGFTFSRYWMSWVRQAPGKGLEWVANIKQDGSEKYYVDSVKGRFTISRDNAKNSLYLQMNSLRAEDTAVYYCAREGGWFGELAFDYWGQGTLVTVSSGSSGRGSSGGSGGSSGEIVLTQSPGTLSLSPGERATLSCRASQRVSSSYLAWYQQKPGQAPRLLIYDASSRATGIPDRFSGSGSGTDFTLTISRLEPEDFAVYYCQQYGSLPWTFGQGTKVEIKGGSGEVQLVESGGGLVQPGGSLRLSCAVSGYTFSMNWVRQAPGKGLEWVAWINMYTGEPTYADDFKGRFTISRDDSKNTLYLQMNSLRAEDTAVYYCARLYNGNSLDYWGQGTLVTVSSGGGGS[human IgG1 Fc with C220S (EU numbers) not printed]
# notes: Single polypeptide with Fc; also called DbInk7
# B5: Dblnk5, linker-enhanced single-chain bispecific antibody (bispecific antibody)
# chain: DIQMTQSPSSLSASVGDRVTITCKSSQSLLNSGNQKSYLTWYQQKPGKAPKLLIYWASTLESGVPSRFSGSGSGTDYTLTISSLQPEDFATYYCQNAYFFPFTFGQGTKVEIKGGGSEVQLVESGGGLVQPGGSLRLSCAASGFTFSRYWMSWVRQAPGKGLEWVANIKQDGSEKYYVDSVKGRFTISRDNAKNSLYLQMNSLRAEDTAVYYCAREGGWFGELAFDYWGQGTLVTVSSSSGSGGGSSSGSSGGEIVLTQSPGTLSLSPGERATLSCRASQRVSSSYLAWYQQKPGQAPRLLIYDASSRATGIPDRFSGSGSGTDFTLTISRLEPEDFAVYYCQQYGSLPWTFGQGTKVEIKSGGRGGEVQLVESGGGLVQPGGSLRLSCAVSGYTFSMNWVRQAPGKGLEWVAWINMYTGEPTYADDFKGRFTISRDDSKNTLYLQMNSLRAEDTAVYYCARLYNGNSLDYWGQGTLVTVSSGGGGS[human IgG1 Fc with C220S (EU numbers) not printed]
# notes: Single polypeptide with Fc; also called DbInk5
# B6: Dblnk13, linker-enhanced single-chain bispecific antibody (bispecific antibody)
# chain: DIQMTQSPSSLSASVGDRVTITCKSSQSLLNSGNQKSYLTWYQQKPGKAPKLLIYWASTLESGVPSRFSGSGSGTDYTLTISSLQPEDFATYYCQNAYFFPFTFGQGTKVEIKGGGGGEVQLVESGGGLVQPGGSLRLSCAASGFTFSRYWMSWVRQAPGKGLEWVANIKQDGSEKYYVDSVKGRFTISRDNAKNSLYLQMNSLRAEDTAVYYCAREGGWFGELAFDYWGQGTLVTVSSGSGSSSSSRSSSGSGGGEIVLTQSPGTLSLSPGERATLSCRASQRVSSSYLAWYQQKPGQAPRLLIYDASSRATGIPDRFSGSGSGTDFTLTISRLEPEDFAVYYCQQYGSLPWTFGQGTKVEIKSGGSGGEVQLVESGGGLVQPGGSLRLSCAVSGYTFSMNWVRQAPGKGLEWVAWINMYTGEPTYADDFKGRFTISRDDSKNTLYLQMNSLRAEDTAVYYCARLYNGNSLDYWGQGTLVTVSSGGGGS[human IgG1 Fc with C220S (EU numbers) not printed]
# notes: Single polypeptide with Fc; also called DbInk13
# B7: Dblnk8, linker-enhanced single-chain bispecific antibody (bispecific antibody)
# chain: DIQMTQSPSSLSASVGDRVTITCKSSQSLLNSGNQKSYLTWYQQKPGKAPKLLIYWASTLESGVPSRFSGSGSGTDYTLTISSLQPEDFATYYCQNAYFFPFTFGQGTKVEIKGGGSSEVQLVESGGGLVQPGGSLRLSCAASGFTFSRYWMSWVRQAPGKGLEWVANIKQDGSEKYYVDSVKGRFTISRDNAKNSLYLQMNSLRAEDTAVYYCAREGGWFGELAFDYWGQGTLVTVSSGGGGSGGGGSGGGGSEIVLTQSPGTLSLSPGERATLSCRASQRVSSSYLAWYQQKPGQAPRLLIYDASSRATGIPDRFSGSGSGTDFTLTISRLEPEDFAVYYCQQYGSLPWTFGQGTKVEIKGSGSGGEVQLVESGGGLVQPGGSLRLSCAVSGYTFSMNWVRQAPGKGLEWVAWINMYTGEPTYADDFKGRFTISRDDSKNTLYLQMNSLRAEDTAVYYCARLYNGNSLDYWGQGTLVTVSSGGGGS[human IgG1 Fc with C220S (EU numbers) not printed]
# notes: Single polypeptide with Fc; also called DbInk8
# Target: T1, CLDN 18.2 fused with GFP at its C-terminal, on MCF7 cells (MCF7-CLDN 18.2) (human)
# Experiment: cell-based or functional assay
row,"ADCC reporter assay, EC50 (FIG. 24B)",Binder
1,0.00255 nM,B1
2,0.00409 nM,B2

# Target: T1, CLDN 18.2 fused with GFP at its …
# Experiment: cell-based or functional assay
# Remark: another data set of the same source
row,"ADCC Reporter in MCF7-CLDN 18.2, EC50",Binder
1,0.0025 nM,B1
2,0.004 nM,B2

# Target: claudin 18.2 (CLDN 18.2), recombinant protein (human)
# Experiment: direct ELISA, coated recombinant CLDN 18.2
# Excerpt: ELISA assay was employed to determine the binding properties of the bispecific antibodies to their antigens. […] The wells were then reacted with goat anti human IgG antibody conjugated with horseradish peroxidase (HRP).
row,Kd,Binder
1,0.29 nM,B3
2,0.22 nM,B1
3,0.25 nM,B4
4,0.25 nM,B5
5,0.2 nM,B2
6,0.21 nM,B6
7,0.26 nM,B7

# Target: claudin 18.2 (CLDN 18.2), recombinant protein (human)
# Experiment: direct ELISA, coated recombinant CLDN 18.2 (FIG. 11A)
row,Kd,Binder
1,0.291 nM,B3
2,0.248 nM,B4
3,0.246 nM,B5
4,0.259 nM,B7

# Target: claudin 18.2 (CLDN 18.2), recombinant protein (human)
# Experiment: direct ELISA, coated recombinant CLDN 18.2 (FIG. 11B)
row,Kd,Binder
1,0.222 nM,B1
2,0.2 nM,B2
3,0.215 nM,B6
